{"source": "paper PMC5578090", "about": "“Biological Evaluation of Uridine Derivatives of 2-Deoxy Sugars as Potential Antiviral Compounds against Influenza A Virus” (International Journal of Molecular Sciences, 2017)"}
{"details": "RP TLC, experimental"}
{"smiles": "CC(=O)O[C@H]1[C@H](C)O[C@H](OC[C@H]2O[C@@H](n3ccc(=O)n(C(=O)c4ccccc4)c3=O)[C@@H]3OC(C)(C)O[C@@H]32)C[C@@H]1O[Si](C)(C)C(C)(C)C", "note": "[Compound 2]", "RMw (chromatographic lipophilicity index)": 6.74}
{"smiles": "CC1(C)O[C@@H]2[C@H](O1)[C@@H](CO[C@@H]1C[C@@H](OCc3ccccc3)[C@H](OCc3ccccc3)[C@@H](COCc3ccccc3)O1)O[C@H]2n1ccc(=O)n(C(=O)c2ccccc2)c1=O", "note": "[Compound 4]", "RMw (chromatographic lipophilicity index)": 7.58}
{"smiles": "CC(=O)OC[C@H]1OC(OC[C@H]2O[C@@H](n3ccc(=O)[nH]c3=O)[C@@H]3OC(C)(C)O[C@@H]32)C[C@@H](OC(C)=O)[C@@H]1OC(C)=O", "note": "(some centres unmarked) [Compound 6]", "RMw (chromatographic lipophilicity index)": 2.32}
{"smiles": "CC1(C)O[C@@H]2[C@H](O1)[C@@H](CO[C@@H]1C[C@@H](OCc3ccccc3)[C@H](OCc3ccccc3)[C@@H](CO[Si](C)(C)C(C)(C)C)O1)O[C@H]2n1ccc(=O)[nH]c1=O", "note": "[Compound 5]", "RMw (chromatographic lipophilicity index)": 8.06}
{"smiles": "CC(=O)O[C@H]1[C@H](C)O[C@H](OC[C@H]2O[C@@H](n3ccc(=O)[nH]c3=O)[C@@H]3OC(C)(C)O[C@@H]32)C[C@@H]1O[Si](C)(C)C(C)(C)C", "note": "[Compound 1]", "RMw (chromatographic lipophilicity index)": 5.83}
{"smiles": "CC1(C)O[C@@H]2[C@H](O1)[C@@H](CO[C@@H]1C[C@@H](OCc3ccccc3)[C@H](OCc3ccccc3)[C@@H](COCc3ccccc3)O1)O[C@H]2n1ccc(=O)[nH]c1=O", "note": "[Compound 3]", "RMw (chromatographic lipophilicity index)": 6.40}
{"smiles": "CC1(C)O[C@@H]2[C@H](O1)[C@@H](CO[C@@H]1C[C@@H](O)[C@H](O)[C@@H](CO)O1)O[C@H]2n1ccc(=O)n(Cc2ccccc2)c1=O", "note": "[Compound 8]", "RMw (chromatographic lipophilicity index)": 2.09}
{"smiles": "CC1(C)O[C@@H]2[C@H](O1)[C@@H](CO[C@@H]1C[C@@H](O)[C@H](O)[C@@H](CO)O1)O[C@H]2n1ccc(=O)[nH]c1=O", "note": "[Compound 7]", "RMw (chromatographic lipophilicity index)": 0.19}
